Assay results as given in the supplement of paper PMC10126150.
Sequences with one replicate were seen in a single cluster, so their values are uncertain.
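Further: ATP exposure 15 min at 22 °C before imaging.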

What follows are sequences tested on ATP (assay: switch fluorescence ratio, 500 uM ATP over buffer (Cy3 cluster intensity, sum of 5 cycles each) (fold (ratio)); higher = stronger signal-on switching upon ATP binding; sequences stand for … in TCGTCGGCAGCGTCAGATGTGTATAAGAGACAGTTTTTTTTTTTTTTTTTTTTTTTTT…TC). Conditions: aptamer strand: ATP DNA aptamer (quencher-CACCTGGGGGAGTATTGCGGAGGAAGG + anchor), 100 nM annealed; ATP concentration: 500 uM; one replicate.
Summary of the method: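 Between each of five buffer/ATP cycles, the flow-cell was stripped with NaOH and re-annealed. Each cycle imaged Cy3-labelled switching-strand clusters, annealed to 100 nM quencher-labelled ATP aptamer on a modified Illumina MiSeq flow-cell, first in selection buffer and then after 15 min with 500 uM ATP at 22 °C. The fluorescence ratio is summed target-cycle over summed buffer-cycle Cy3 intensity per cluster, averaged per switch-domain sequence, with clusters outside 100-1000 RFU excluded.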
TAAACAAAAA gave a switch fluorescence ratio of 0.967. Work on TAAACACTGA yielded a switch fluorescence ratio of 1.08. TAAACACTTT gave a switch fluorescence ratio of 1.01. TAAACAGGTT gave a switch fluorescence ratio of 0.964. TAAACCCGAC was tested, and the switch fluorescence ratio was 1.63. In the case of TAAACCGGGG, the switch fluorescence ratio is reported as 1.05. TAAACCTGCT was tested, and the switch fluorescence ratio was 1.18. Sequence TAAACTTGAT has a switch fluorescence ratio of 1.02. TAAAGAAATT showed a switch fluorescence ratio of 1.22. TAAAGCCTAG showed a switch fluorescence ratio of 1.04. TAAAGCTCGT showed a switch fluorescence ratio of 1.01. Work on TAAAGCTGCA yielded a switch fluorescence ratio of 1.09. TAAAGGCACA showed a switch fluorescence ratio of 1.02. Work on TAAAGGTAC yielded a switch fluorescence ratio of 1.09. Sequence TAAAGGTGG has a switch fluorescence ratio of 0.99. TAAAGGTGGG was tested, and the switch fluorescence ratio was 0.999. Sequence TAAAGTCAAT has a switch fluorescence ratio of 1.03. TAAAGTGCAC gave a switch fluorescence ratio of 0.993. TAAAGTTGG showed a switch fluorescence ratio of 0.992. For TAAAGTTTTA, the switch fluorescence ratio was 0.992. Sequence TAAATACTTG has a switch fluorescence ratio of 1.09. Work on TAAATCCGCG yielded a switch fluorescence ratio of 1.17. In the case of TAAATCGAGC, the switch fluorescence ratio is reported as 0.943. With TAAATCGTGT the switch fluorescence ratio was 1.06. In the case of TAAATCTAGC, the switch fluorescence ratio is reported as 1.04. Sequence TAAATGACAG has a switch fluorescence ratio of 1.01. TAAATGAGA was tested, and the switch fluorescence ratio was 0.986. With TAAATGGACA the switch fluorescence ratio was 1.01. Work on TAAATTATGA yielded a switch fluorescence ratio of 1. For TAAATTCCGT, the switch fluorescence ratio was 0.985. With TAAATTCGAT the switch fluorescence ratio was 0.971. TAAATTCGTT was tested, and the switch fluorescence ratio was 1.03. In the case of TAAATTGCAG, the switch fluorescence ratio is reported as 1.01. TAAATTTAA was tested, and the switch fluorescence ratio was 0.963. TAACACAGGC was tested, and the switch fluorescence ratio was 1.09. In the case of TAACACTTAA, the switch fluorescence ratio is reported as 1.04. TAACACTTGT was tested, and the switch fluorescence ratio was 1.02. Work on TAACATCCTT yielded a switch fluorescence ratio of 1. TAACATTTCC gave a switch fluorescence ratio of 1.6. TAACCATGGA gave a switch fluorescence ratio of 0.992. With TAACCCACCG the switch fluorescence ratio was 1.28. TAACCCAGCG gave a switch fluorescence ratio of 1.32. With TAACCCGAAA the switch fluorescence ratio was 1.17. Sequence TAACCGATCG has a switch fluorescence ratio of 1.06. Sequence TAACGACTCA has a switch fluorescence ratio of 1.04. TAACGCGACA showed a switch fluorescence ratio of 1.22. In the case of TAACGGAGAT, the switch fluorescence ratio is reported as 1.01. Work on TAACTAACAA yielded a switch fluorescence ratio of 1.05. TAACTAGGA showed a switch fluorescence ratio of 0.974. TAACTAGTTC showed a switch fluorescence ratio of 0.972. TAACTGTTGG was tested, and the switch fluorescence ratio was 0.996. TAACTTCCAT gave a switch fluorescence ratio of 1.02. TAAGACGAAC gave a switch fluorescence ratio of 1.36. For TAAGACGACA, the switch fluorescence ratio was 1.06. TAAGAGAATA was tested, and the switch fluorescence ratio was 0.984. TAAGAGAGCA was tested, and the switch fluorescence ratio was 1.03. With TAAGAGGCAT the switch fluorescence ratio was 1.02. TAAGAGTCAG was tested, and the switch fluorescence ratio was 1. Work on TAAGATAACC yielded a switch fluorescence ratio of 0.987. For TAAGATGTGG, the switch fluorescence ratio was 0.997. For TAAGATGTTC, the switch fluorescence ratio was 0.997. TAAGATTG gave a switch fluorescence ratio of 0.978. TAAGCAATTT showed a switch fluorescence ratio of 1.07. With TAAGCATAGT the switch fluorescence ratio was 1.03. Work on TAAGCCACGT yielded a switch fluorescence ratio of 1.01. Sequence TAAGCGCTG has a switch fluorescence ratio of 0.983. TAAGCGTAAC showed a switch fluorescence ratio of 1.12. Work on TAAGCTGGG yielded a switch fluorescence ratio of 0.975. Sequence TAAGCTTCCC has a switch fluorescence ratio of 1.94. Sequence TAAGGAAGTA has a switch fluorescence ratio of 1. Sequence TAAGGACTTT has a switch fluorescence ratio of 0.996. TAAGGAGGG was tested, and the switch fluorescence ratio was 1. For TAAGGATCTG, the switch fluorescence ratio was 1.02. TAAGGCATC gave a switch fluorescence ratio of 0.994. In the case of TAAGGCCCGA, the switch fluorescence ratio is reported as 0.988. TAAGGCGCGA was tested, and the switch fluorescence ratio was 0.99. Sequence TAAGGGACAG has a switch fluorescence ratio of 1.02. In the case of TAAGGGCGG, the switch fluorescence ratio is reported as 1.01. For TAAGGGGACT, the switch fluorescence ratio was 1.03. TAAGGGTTCG was tested, and the switch fluorescence ratio was 0.922. Work on TAAGGTATAA yielded a switch fluorescence ratio of 1. Sequence TAAGGTCGCA has a switch fluorescence ratio of 1.02. With TAAGGTTAGG the switch fluorescence ratio was 0.984. Sequence TAAGGTTTTC has a switch fluorescence ratio of 1.04. With TAAGTAAAAG the switch fluorescence ratio was 1.02. Work on TAAGTCCTCA yielded a switch fluorescence ratio of 0.981. Sequence TAAGTCGGGC has a switch fluorescence ratio of 0.977. Sequence TAAGTCTGT has a switch fluorescence ratio of 1.01. TAAGTGAGGA was tested, and the switch fluorescence ratio was 0.999. TAAGTGGCGC was tested, and the switch fluorescence ratio was 1.04. With TAAGTGGCGG the switch fluorescence ratio was 0.985. TAAGTTATGC gave a switch fluorescence ratio of 1.04. In the case of TAATAAGG, the switch fluorescence ratio is reported as 0.969. In the case of TAATACCACG, the switch fluorescence ratio is reported as 1.06. TAATACCCGT showed a switch fluorescence ratio of 1.01. With TAATAGACTT the switch fluorescence ratio was 1.03. TAATAGCCCC showed a switch fluorescence ratio of 1.08. In the case of TAATAGCGCG, the switch fluorescence ratio is reported as 0.995. Work on TAATAGCGTT yielded a switch fluorescence ratio of 0.99. TAATATAAAT gave a switch fluorescence ratio of 0.998. TAATATGTCT gave a switch fluorescence ratio of 1.04. In the case of TAATATTATA, the switch fluorescence ratio is reported as 0.979. TAATATTTCT gave a switch fluorescence ratio of 0.985. Work on TAATCAGAA yielded a switch fluorescence ratio of 0.991. Work on TAATCATAGG yielded a switch fluorescence ratio of 1.01. In the case of TAATCATTAA, the switch fluorescence ratio is reported as 0.955. For TAATCCTATC, the switch fluorescence ratio was 1.03. With TAATCGCTGT the switch fluorescence ratio was 1.04. TAATGACTAT showed a switch fluorescence ratio of 1. TAATGCCCCA was tested, and the switch fluorescence ratio was 0.945. Work on TAATGCCGCC yielded a switch fluorescence ratio of 1.03. TAATGCGGTA showed a switch fluorescence ratio of 1.02. For TAATGCGGTC, the switch fluorescence ratio was 1.01. TAATGGACAT was tested, and the switch fluorescence ratio was 1.01. Work on TAATGGATCC yielded a switch fluorescence ratio of 0.989. Sequence TAATGGCTGT has a switch fluorescence ratio of 0.999. TAATGGGAAG gave a switch fluorescence ratio of 1.01. Work on TAATGGTGAG yielded a switch fluorescence ratio of 0.991. TAATGTAAAC was tested, and the switch fluorescence ratio was 0.966. For TAATGTCTCA, the switch fluorescence ratio was 0.974. In the case of TAATGTGTG, the switch fluorescence ratio is reported as 0.987. TAATGTTCAG was tested, and the switch fluorescence ratio was 0.999. With TAATTACTG the switch fluorescence ratio was 1.02. Sequence TAATTATTTG has a switch fluorescence ratio of 0.993. Sequence TAATTGACAT has a switch fluorescence ratio of 1.03. TAATTGGAAA was tested, and the switch fluorescence ratio was 1.01. TAATTGGTAC was tested, and the switch fluorescence ratio was 1.09. In the case of TAATTTAA, the switch fluorescence ratio is reported as 1.01. For TAATTTTAAC, the switch fluorescence ratio was 1.03. TAATTTTCAT gave a switch fluorescence ratio of 1.01. TAATTTTTCA was tested, and the switch fluorescence ratio was 0.997. For TACAAAGTGG, the switch fluorescence ratio was 1.02. In the case of TACAAGTCCT, the switch fluorescence ratio is reported as 0.976. TACAAGTGCC showed a switch fluorescence ratio of 1.04. In the case of TACAATAAGG, the switch fluorescence ratio is reported as 1.05. With TACAATATGC the switch fluorescence ratio was 1.1. With TACAATGAAA the switch fluorescence ratio was 1.03. TACACACGTA showed a switch fluorescence ratio of 1.33. Work on TACACATTC yielded a switch fluorescence ratio of 1.03. TACACCGATT gave a switch fluorescence ratio of 0.993. For TACACCGGTT, the switch fluorescence ratio was 1.05. TACACCTAGA gave a switch fluorescence ratio of 1.1. Sequence TACACGTACT has a switch fluorescence ratio of 1.68. TACACTATCT was tested, and the switch fluorescence ratio was 1.02. Work on TACACTC yielded a switch fluorescence ratio of 1.05. For TACACTGGCA, the switch fluorescence ratio was 1.04. Work on TACAGACGGC yielded a switch fluorescence ratio of 1.41. With TACAGACGTC the switch fluorescence ratio was 1.06. In the case of TACAGGTAAC, the switch fluorescence ratio is reported as 1.06. In the case of TACAGTAATG, the switch fluorescence ratio is reported as 0.987. TACAGTTTGG gave a switch fluorescence ratio of 0.938. TACATAGGC was tested, and the switch fluorescence ratio was 1.03. With TACATATAGC the switch fluorescence ratio was 1.07. Work on TACATCGGTT yielded a switch fluorescence ratio of 0.998.
